This passage reports binding signal results from article PMC6212790.

Some of the results follow. At the low end of the ranking the order means little.

The target of the experiment is T1, GST-Rok-C97-191 (UniProt O34857).
T1 sequence: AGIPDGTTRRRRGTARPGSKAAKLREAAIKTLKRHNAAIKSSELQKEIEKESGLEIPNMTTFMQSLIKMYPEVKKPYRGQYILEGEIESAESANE
Nature of the experiment: protein binding microarray.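 Further: rank score from −0.5 (least bound) to 0.5 (best bound).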 The note with it: Rok is a gene silencer of Bacillus subtilis; high values mean tight binding; most listed sequences are background and not binding sites; double strand, one strand shown.
Regarding CGTGTCTC, the binding signal was -0.0102 E-score.
For GCCTTCCC the value was -0.323 E-score.
For CGCTACGA the value was 0.0242 E-score; for AAGAATCG, 0.0833 E-score.
As to GGGAGCTA, the binding signal was -0.155 E-score.
As to GGACCAAC, the binding signal was -0.163 E-score.
Regarding CACTGCTA, the binding signal was 0.0112 E-score.
Then CATACTTC, with 0.174 E-score; and CAGTCTCG, with -0.194 E-score.
Then ATGTCAAT, with 0.0306 E-score.
As for TGGTGAAA, the binding signal was -0.095 E-score.
Then CAGGTGCG, with -0.233 E-score; and TCGATTAA, with 0.125 E-score; and GCGAATAC, with 0.0221 E-score.
The sequence AGACACGC gave a binding signal of 0.00429 E-score.
In the case of CGCAACGC, the binding signal was -0.111 E-score.
In turn, AATTATGC gave a binding signal of 0.215 E-score.
The sequence GGATTCAA had a binding signal of -0.0564 E-score.
GATGGCGA gave a binding signal of 0.0644 E-score.
Then CGATTTAC, with 0.209 E-score.
Sequence TGAAGACA came in with a binding signal of -0.146 E-score.
In turn, TACCCATA gave a binding signal of 0.234 E-score.
CACTATCG gave a binding signal of 0.215 E-score.
AGAGACCA had a binding signal of 0.00222 E-score.
For the sequence GGATTGAA, the binding signal was -0.0309 E-score.
TGCCGTAA showed a binding signal of -0.0714 E-score.
Turning to CCGTCTCC, the binding signal was -0.209 E-score.
For CCCCTGTC, the binding signal is -0.302 E-score.
On to CGCCCGTC, for which the binding signal is -0.275 E-score.
With CTTTACTA, the binding signal came to 0.0223 E-score.
Consider ATGCATTC, for which the binding signal amounted to 0.0561 E-score.
As to GCTTTAAA, the binding signal came to 0.00559 E-score.
In turn, GAGGGGAA had a binding signal of -0.255 E-score.
GAAATACC came in with a binding signal of 0.289 E-score.
Consider CGGTTCCA, for which the binding signal turned out to be 0.0554 E-score.
Then AAGTTATT, with 0.259 E-score; and GATCGCGC, with -0.0683 E-score; and GTGTTATA, with 0.133 E-score.
In turn, TACACGGA returned a binding signal of -0.139 E-score.
As for AAGACCGG, the binding signal was -0.0043 E-score.
GGCACCTA showed a binding signal of -0.0477 E-score.
Then CCGAAAGC, with -0.213 E-score.
With ATGATCGC, the binding signal turned out to be 0.142 E-score.
The sequence AGCCGATA yielded a binding signal of 0.00367 E-score.
Sequence TACGTTAA showed a binding signal of 0.102 E-score.
Turning to ACATCAGT, the binding signal came out at 0.203 E-score.
In turn, CCGGGACC returned a binding signal of -0.414 E-score.
Then CAGGGGGC, with -0.372 E-score; and ACCCGTAT, with -0.0353 E-score; and CTCATGCC, with -0.211 E-score.
The sequence AACATTTA gave a binding signal of 0.0536 E-score.
The sequence CTCTACAG displayed a binding signal of -0.111 E-score.
Take CCCACGAC: the binding signal is -0.32 E-score.
For CACTGAAG the value was -0.17 E-score.
As to ACCCTCCT, the binding signal is -0.148 E-score.
As for CCTGACGA, the binding signal was -0.133 E-score.
ATTAGCAA: the binding signal was 0.0253 E-score.
Consider AAGAATCT, for which the binding signal was found to be 0.0962 E-score.
In turn, CCCCAGCC registered a binding signal of -0.272 E-score.
The sequence AGTGTATA came in with a binding signal of 0.294 E-score.
The sequence ACGTTCCT registered a binding signal of 0.0588 E-score.
CGCAAATC: the binding signal was found to be 0.159 E-score.
Take CGGACCTA: the binding signal is -0.165 E-score.
Then GGCAGTAA, with 0.236 E-score.
ATACAGTC registered a binding signal of 0.158 E-score.
Take CTTAAAGA: the binding signal was -0.126 E-score.
For GTCGACCA the value was -0.198 E-score; for AGGCTCTA, -0.0626 E-score.
As to AAACGCCG, the binding signal was -0.246 E-score.
As for AAGACACG, the binding signal is -0.0621 E-score.
For CAGTACCC, the binding signal is -0.135 E-score.
As for AAGCCAGC, the binding signal was -0.0922 E-score.
Then GTTAGTGA, with 0.0336 E-score.
Then TTACACAA, with 0.109 E-score.
Turning to GCGGTAAC, the binding signal is -0.0554 E-score.
As to CAACATAA, the binding signal turned out to be 0.0943 E-score.
For ACGACTCA the value was -0.0452 E-score; for ATTTGGAG, -0.192 E-score.
As for CCGGTCAA, the binding signal is 0.0434 E-score.
Consider ATTTCCTC, for which the binding signal is -0.0982 E-score.
In the case of GGCGACAC, the binding signal was -0.0519 E-score.
In turn, GTTGTAGA returned a binding signal of 0.283 E-score.
CTCCGGAC gave a binding signal of -0.132 E-score.
Regarding ACTGGGAC, the binding signal was -0.142 E-score.
Then GGGCGATA, with -0.137 E-score; and GAGACGCA, with -0.281 E-score; and TGCGAGCA, with -0.0842 E-score.
Then AAGGTTTA, with 0.191 E-score; and ATGTGCTC, with 0.0251 E-score; and CTAGTGCC, with 0.0424 E-score.
On to ATTCCCTA, for which the binding signal is 0.0618 E-score.
For GTTGACCA the value was -0.0968 E-score; for ATTGGGTG, -0.0866 E-score.
Then AGAGTGCT, with 0.00259 E-score; and AACAACTG, with -0.0632 E-score.
As to GTAGTTTA, the binding signal was 0.423 E-score.
In turn, CCCAAGGG gave a binding signal of -0.194 E-score.
ATTCGTGA came in with a binding signal of 0.0913 E-score.
In turn, CAGTCCCA yielded a binding signal of -0.104 E-score.
In the case of GCGGCACA, the binding signal was -0.157 E-score.
With ATGCGAGC, the binding signal is -0.238 E-score.
For CCTCACCG, the binding signal is -0.239 E-score.
In turn, GCCGCGGC came in with a binding signal of -0.285 E-score.
In turn, CATATGCA gave a binding signal of 0.0211 E-score.
For the sequence AAGGCTAC, the binding signal is -0.055 E-score.
AGTGATTA gave a binding signal of 0.204 E-score.
Take AGCTGCAG: the binding signal is -0.0871 E-score.
Consider TACGCATA, for which the binding signal was -0.076 E-score.
TCTGTTAA showed a binding signal of 0.00384 E-score.
